In all, about 33,000 sequences were measured (“E-score (-0.5 to 0.5)”: median about -0.056, highest 2% from about 0.38 on). The list shows a part of the results.
Molecular target: Stb4 (UniProt P50104)
Assay: PBM E-score (8-mer binding enrichment) (E-score (-0.5 to 0.5)); higher = stronger / more preferred TF binding; most listed sequences are background and not binding sites
Details: protein concentration: 200 nM; construct: GST-DNA-binding domain
Method: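 Universal 'all 10-mer' protein binding microarrays (Agilent AMADID 015681) probed with GST-tagged S. cerevisiae TFs (full-length or DBD) made by in vitro transcription/translation (PURExpress), about 100-200 nM. Bound TF was detected with fluorescent anti-GST. Each ungapped 8-mer (which stands for itself and its reverse complement) is scored by the PBM enrichment score (E-score), a modified Wilcoxon-Mann-Whitney statistic from -0.5 to +0.5, computed with the Universal PBM Analysis Suite. Scale: above 0.35 generally sequence-specific binding.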

Going from CAAACCCG to AGGGATTC, the “PBM E-score” value falls from 0.219 to -0.0369.

Compared with CAGCATCG, CGCTGGCA is lower in “PBM E-score” value: -0.119 for the first, -0.227 for the second.

First: CCATATGC
Second: CCCCATAA
The “PBM E-score” value of the first is lower: -0.104 for the first, -0.0851 for the second.

Going from CCTATTAG to AAGCCCTG, the “PBM E-score” value falls from -0.145 to -0.271.

First: AATTTTGC
Second: AATATGCG
The “PBM E-score” value of the first is higher: 0.00035 for the first, -0.0103 for the second.

Going from GAAATGAC to GCAGGACC, the “PBM E-score” value falls from -0.0643 to -0.156.

First: GTTTCCGA
Second: CCACTATA
The “PBM E-score” value of the first is higher: 0.466 for the first, -0.0398 for the second.

Going from GCCGGAGC to CCCATTCG, the “PBM E-score” value falls from 0.283 to -0.0691.

First: AAACTAGT
Second: GATTCCGA
The “PBM E-score” value of the first is lower: -0.114 for the first, 0.444 for the second.

Going from ATGAGCGC to CGCTCTTC, the “PBM E-score” value falls from 0.0167 to -0.0242.

Compared with AAAGATTA, GGACAGAA is lower in “PBM E-score” value: 0.0914 for the first, -0.00634 for the second.

Compared with ACTCGCCG, CATCCCGC is lower in “PBM E-score” value: 0.123 for the first, 0.122 for the second.

First: GTACACCA
Second: CAGACTCA
The “PBM E-score” value of the first is higher: -0.121 for the first, -0.186 for the second.

Going from AGCCGCGA to ATACGAGG, the “PBM E-score” value falls from 0.209 to -0.0328.

First: CGTCGCGC
Second: GGACGATA
The “PBM E-score” value of the first is higher: 0.00783 for the first, -0.0892 for the second.

First: CTTGCTGC
Second: CGTTCAAC
The “PBM E-score” value of the first is lower: -0.24 for the first, -0.104 for the second.

Compared with GATGCAAC, TTAAGGAA is higher in “PBM E-score” value: -0.12 for the first, -0.0537 for the second.

Going from ACCGTGAG to CTAGATCA, the “PBM E-score” value falls from -0.0243 to -0.251.

First: AGGAAAGG
Second: ACACGAAG
The “PBM E-score” value of the first is lower: -0.131 for the first, 0.00748 for the second.

Going from CCTAACAG to TCGCCTAA, the “PBM E-score” value rises from -0.0901 to -0.031.

Compared with CATGGCTA, GCTTATTA is lower in “PBM E-score” value: -0.0176 for the first, -0.132 for the second.

Going from ACGTTATG to AGCTCATC, the “PBM E-score” value rises from -0.068 to -0.0601.

Compared with AACTCGAA, GACGGGCA is higher in “PBM E-score” value: -0.149 for the first, -0.01 for the second.

Compared with CGCAGTAC, AGCGCTTC is higher in “PBM E-score” value: -0.204 for the first, -0.0479 for the second.

Going from CAAAATGG to CCCGAACG, the “PBM E-score” value rises from 0.0214 to 0.378.

Going from TAACGGAA to ACCCGGGT, the “PBM E-score” value rises from 0.318 to 0.41.

First: CACTTGGG
Second: ACGGGACC
The “PBM E-score” value of the first is lower: -0.144 for the first, 0.181 for the second.

Going from CTCGAGGA to ACATGGTG, the “PBM E-score” value falls from -0.188 to -0.225.

Compared with AAGAGCAT, AGTATCAG is lower in “PBM E-score” value: -0.138 for the first, -0.231 for the second.

Going from ATGGCAAG to AAATGTTC, the “PBM E-score” value rises from -0.147 to -0.013.

Compared with ATTCCGCA, CTTTGAGA is lower in “PBM E-score” value: 0.169 for the first, -0.107 for the second.

First: AACCCATG
Second: TGCCACAA
The “PBM E-score” value of the first is lower: -0.123 for the first, -0.0292 for the second.

Compared with CAACATTC, CGTTACGC is lower in “PBM E-score” value: -0.0398 for the first, -0.0964 for the second.

First: CCCCCTTC
Second: CTAAAAGC
The “PBM E-score” value of the first is lower: -0.175 for the first, -0.0283 for the second.

Compared with GCCAATAC, ATAAGTGA is higher in “PBM E-score” value: -0.14 for the first, -0.129 for the second.

First: AATCAGGA
Second: AGCTGCCC
The “PBM E-score” value of the first is lower: -0.142 for the first, 0.087 for the second.

Compared with AGCGTAGA, ACAACGGA is higher in “PBM E-score” value: 0.0958 for the first, 0.282 for the second.

First: ATCACATG
Second: GACCCGCC
The “PBM E-score” value of the first is lower: -0.05 for the first, 0.0652 for the second.

Going from CTGATCCC to CTACATAG, the “PBM E-score” value falls from -0.0865 to -0.128.

First: AGATGGCT
Second: AAGCTCAC
The “PBM E-score” value of the first is lower: -0.195 for the first, -0.0192 for the second.

First: CCCCTCGG
Second: ATTCATTG
The “PBM E-score” value of the first is higher: 0.332 for the first, -0.191 for the second.

First: GCTTGCGA
Second: ACCACGAC
The “PBM E-score” value of the first is higher: -0.104 for the first, -0.309 for the second.

Compared with ACCGGCAA, GACGACAC is lower in “PBM E-score” value: 0.229 for the first, -0.0829 for the second.

Going from CAGATGAA to AACAGCCG, the “PBM E-score” value rises from -0.189 to 0.298.

First: ACAGCATA
Second: AGTTTACC
The “PBM E-score” value of the first is lower: 0.0201 for the first, 0.109 for the second.

Going from CCTAGGCC to CAAAGGGG, the “PBM E-score” value falls from -0.104 to -0.122.

Going from AGATTCAG to ACTCTCCT, the “PBM E-score” value falls from -0.1 to -0.272.

Going from AGCCAGCG to CGGAGTGA, the “PBM E-score” value rises from -0.131 to 0.27.

First: ACTCTCTA
Second: AATGTCAG
The “PBM E-score” value of the first is lower: -0.298 for the first, -0.0429 for the second.

First: CAAAGATC
Second: GCCGACGC
The “PBM E-score” value of the first is lower: -0.136 for the first, 0.324 for the second.

First: CACAACTC
Second: ATGCATCA
The “PBM E-score” value of the first is lower: -0.149 for the first, 0.0413 for the second.

First: AAACGCCC
Second: GCATCTCA
The “PBM E-score” value of the first is higher: 0.0417 for the first, -0.222 for the second.

First: CAAACAAG
Second: ATACAAGG
The “PBM E-score” value of the first is higher: 0.0864 for the first, 0.0637 for the second.

Going from CTTTATCA to GCAGCGCA, the “PBM E-score” value rises from -0.208 to -0.138.

Going from ACTTAACA to AGCTCACG, the “PBM E-score” value falls from -0.128 to -0.183.

Going from ACAAAGCA to CGCTACAC, the “PBM E-score” value falls from -0.0564 to -0.097.

Going from ATACCTGC to CGAGACAA, the “PBM E-score” value rises from -0.115 to 0.0106.

Compared with CCATTCAA, AGCTAATG is lower in “PBM E-score” value: -0.255 for the first, -0.307 for the second.

Compared with ATCGTAAT, CACTATAC is lower in “PBM E-score” value: -0.0583 for the first, -0.151 for the second.

Compared with GGAGACAC, AATGTGTA is lower in “PBM E-score” value: 0.0441 for the first, -0.189 for the second.

Compared with AGGGACGG, CGCCGCGC is higher in “PBM E-score” value: 0.0135 for the first, 0.119 for the second.

Going from GAGTGAAC to TATCGCAA, the “PBM E-score” value falls from 0.00509 to -0.178.

Compared with CAGAAGCC, ATCCTAAT is lower in “PBM E-score” value: -0.0243 for the first, -0.0888 for the second.

First: ACCCAGCA
Second: ATCATCTA
The “PBM E-score” value of the first is lower: -0.00407 for the first, 0.00686 for the second.

First: CATTGGCG
Second: ATAGTGAC
The “PBM E-score” value of the first is lower: -0.115 for the first, 0.00613 for the second.

Compared with CCTTGTTC, CACCCAGA is lower in “PBM E-score” value: 0.113 for the first, -0.138 for the second.

First: GCAGCGAA
Second: AGGAACAG
The “PBM E-score” value of the first is higher: -0.0698 for the first, -0.243 for the second.

Compared with CTACAGAC, ATTCTAGG is lower in “PBM E-score” value: -0.0516 for the first, -0.24 for the second.

Compared with ATCAAATA, ATGTTTTC is higher in “PBM E-score” value: -0.0732 for the first, 0.118 for the second.

Going from GATGTGCA to CAAGAACG, the “PBM E-score” value falls from -0.0587 to -0.193.

Compared with ATGGTTGC, ATGACGTA is higher in “PBM E-score” value: -0.21 for the first, -0.125 for the second.

Compared with CGCTTCAC, GGGGAACA is higher in “PBM E-score” value: -0.0873 for the first, -0.00425 for the second.

First: ATACCCGA
Second: ACTCTTGC
The “PBM E-score” value of the first is higher: 0.476 for the first, -0.119 for the second.

First: AGAGTAGG
Second: ATCTGAGG
The “PBM E-score” value of the first is lower: -0.108 for the first, -0.0721 for the second.

Compared with CGACCCAA, GAATTGTC is higher in “PBM E-score” value: -0.147 for the first, -0.00523 for the second.

Going from CTCCCGCC to ACGTTCTC, the “PBM E-score” value falls from 0.182 to 0.0386.

Going from AGCAGAGG to GTGGTTTA, the “PBM E-score” value rises from -0.31 to 0.0136.

Going from CAGAGCGA to TTATTCAA, the “PBM E-score” value rises from -0.0292 to 0.0286.

Compared with AGGGGCGA, AACCCTCG is higher in “PBM E-score” value: -0.127 for the first, 0.144 for the second.

First: CCTCGCAA
Second: GCGCGCCA
The “PBM E-score” value of the first is lower: -0.151 for the first, -0.0421 for the second.

First: ACATCTAA
Second: AGGGTCCA
The “PBM E-score” value of the first is lower: -0.0958 for the first, -0.0617 for the second.

Compared with AGTCAAAT, ATGATAGG is higher in “PBM E-score” value: -0.264 for the first, -0.0605 for the second.

Compared with GCATACGC, AGCAGTAA is lower in “PBM E-score” value: 0.0345 for the first, -0.0503 for the second.

Compared with AGGAAACG, TGAGGCAA is higher in “PBM E-score” value: -0.164 for the first, -0.0958 for the second.

Compared with CCCGTAAC, ACTCTATG is lower in “PBM E-score” value: 0.225 for the first, -0.122 for the second.

Compared with ACGGTCAG, CTCCGGAG is higher in “PBM E-score” value: -0.22 for the first, 0.304 for the second.

Source: the supplement of paper PMC3334620
